Test [1] has as its target T1, GST-Cti6 fusion protein (amino acids 1–506, comprising full length) (S. cerevisiae) (UniProt Q08923).
T1 sequence: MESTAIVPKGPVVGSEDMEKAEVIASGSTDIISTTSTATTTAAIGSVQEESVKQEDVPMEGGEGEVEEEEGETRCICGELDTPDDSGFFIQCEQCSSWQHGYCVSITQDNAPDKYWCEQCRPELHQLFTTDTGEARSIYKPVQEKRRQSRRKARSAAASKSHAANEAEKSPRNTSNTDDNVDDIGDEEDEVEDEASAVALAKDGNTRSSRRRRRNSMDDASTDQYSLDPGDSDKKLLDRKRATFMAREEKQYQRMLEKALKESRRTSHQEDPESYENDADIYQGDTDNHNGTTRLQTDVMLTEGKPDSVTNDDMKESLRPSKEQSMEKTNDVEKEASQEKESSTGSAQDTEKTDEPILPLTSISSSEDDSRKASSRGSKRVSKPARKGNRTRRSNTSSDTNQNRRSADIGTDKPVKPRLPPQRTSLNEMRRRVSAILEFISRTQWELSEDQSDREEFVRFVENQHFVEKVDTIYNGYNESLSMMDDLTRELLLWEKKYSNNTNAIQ
Description: pull-down; GST fusion from E. coli immobilized on GSH Sepharose, incubated with pre-cleared total protein extract of E. coli BL21 containing the HA fusion (no yeast proteins); elution with 10 mM free GSH, anti-HA blot; only the target purified.

Sequences of proteins named here, by UniProt entry; tags and fusion partners are left off.
UniProt P16649: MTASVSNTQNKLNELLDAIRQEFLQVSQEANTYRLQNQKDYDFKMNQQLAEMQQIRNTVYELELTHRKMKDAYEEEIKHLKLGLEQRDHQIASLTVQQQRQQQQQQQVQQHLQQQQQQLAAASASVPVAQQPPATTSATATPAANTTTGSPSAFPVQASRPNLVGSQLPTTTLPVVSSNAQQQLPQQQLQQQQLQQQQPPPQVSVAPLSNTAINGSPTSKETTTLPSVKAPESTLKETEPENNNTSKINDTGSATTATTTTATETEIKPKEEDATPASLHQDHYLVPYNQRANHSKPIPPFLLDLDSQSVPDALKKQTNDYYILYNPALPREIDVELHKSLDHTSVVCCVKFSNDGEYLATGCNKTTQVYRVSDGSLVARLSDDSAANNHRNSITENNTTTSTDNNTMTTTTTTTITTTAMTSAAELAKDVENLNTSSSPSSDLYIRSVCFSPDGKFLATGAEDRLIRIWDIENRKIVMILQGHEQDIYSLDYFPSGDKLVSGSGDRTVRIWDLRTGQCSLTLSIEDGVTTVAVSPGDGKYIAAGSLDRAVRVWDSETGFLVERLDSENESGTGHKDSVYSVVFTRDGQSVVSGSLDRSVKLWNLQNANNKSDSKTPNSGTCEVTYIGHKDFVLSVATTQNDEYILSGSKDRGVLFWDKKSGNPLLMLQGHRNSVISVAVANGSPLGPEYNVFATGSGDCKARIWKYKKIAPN

For test [2], the target named is T2, GST-Cti6 (aa 351–506) (S. cerevisiae) (UniProt Q08923).
T2 sequence: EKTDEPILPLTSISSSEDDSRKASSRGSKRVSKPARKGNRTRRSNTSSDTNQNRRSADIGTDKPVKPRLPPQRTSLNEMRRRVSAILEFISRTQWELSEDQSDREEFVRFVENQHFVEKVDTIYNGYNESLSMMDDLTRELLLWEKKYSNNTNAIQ
The experiment in a line: pull-down; GST fusion from E. coli immobilized on GSH Sepharose, incubated with pre-cleared total protein extract of S. cerevisiae containing the HA fusion; washing with increasing stringency, elution with 10 mM free GSH, anti-HA blot; only the target purified.

The target in test [3] is T3, GST-Cti6 (aa 430–506) (S. cerevisiae) (UniProt Q08923).
T3 sequence: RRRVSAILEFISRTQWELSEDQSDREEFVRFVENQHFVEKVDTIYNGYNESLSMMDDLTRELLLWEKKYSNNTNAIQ
The test is described as above.

Test [4] deals with T1, GST-Cti6 fusion protein (amino acids 1–506, comprising full length) (S. cerevisiae). The description is as above.
In test [5] the target is T4, GST-Cti6_(450–506) (S. cerevisiae) (UniProt Q08923).
T4 sequence: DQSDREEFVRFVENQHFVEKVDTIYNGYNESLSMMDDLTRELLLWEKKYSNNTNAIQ
Described as above.

Test [6] concerns the target T5, Gal4 DBD-Sin3 (aa 1–300, containing PAH1) (S. cerevisiae) (UniProt P22579).
T5 sequence: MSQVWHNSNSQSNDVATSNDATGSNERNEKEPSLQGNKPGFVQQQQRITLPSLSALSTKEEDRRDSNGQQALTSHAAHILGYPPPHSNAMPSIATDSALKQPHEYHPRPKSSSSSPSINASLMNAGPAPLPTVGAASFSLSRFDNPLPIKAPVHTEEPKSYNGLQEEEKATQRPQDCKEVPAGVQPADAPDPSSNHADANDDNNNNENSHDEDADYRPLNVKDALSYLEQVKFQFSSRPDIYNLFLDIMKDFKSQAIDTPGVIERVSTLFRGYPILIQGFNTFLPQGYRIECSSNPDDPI
The experiment in a line: two-hybrid; strain PJ69-4A; Gal4 DBD-Sin3 (pGBD-C1) and Gal4 TAD-Cti6 (pGAD-C1); GAL2-ADE2 reporter, growth on medium without adenine, 48 h.

For test [7], the target named is Gal4 DBD-Sin3 (aa 301–888) (S. cerevisiae) (UniProt P22579). The test is described as above.
The target of test [8] is T1, GST-Cti6 fusion protein (amino acids 1–506, comprising full length) (S. cerevisiae). The experiment in a line: pull-down; GST fusion from E. coli immobilized on GSH Sepharose, incubated with pre-cleared total protein extract of S. cerevisiae containing the HA fusion; washing with increasing stringency, elution with 10 mM free GSH, anti-HA blot; only the target purified. This is another data set of the same source.

In test [9] the target is T4, GST-Cti6_(450–506) (S. cerevisiae). The experiment in a line: pull-down; GST fusion from E. coli immobilized on GSH Sepharose, incubated with pre-cleared total protein extract of E. coli BL21 containing the HA fusion (no yeast proteins); elution with 10 mM free GSH, anti-HA blot; only the target purified.

No constants are given. Whether binding was seen depends on the method and setting. For part of these data: In cells and extracts the contact can be indirect. Some results given as binding are weak or reduced against the parent protein; the word gives no strength. For part of these data: Tags and fused reporters may be left off the sequences shown.

For “HA3-Sin3 (full-length), bacterially synthesized (from UniProt P22579 1-1536)”, the binding entry in test [1] was “binds”.

Regarding “HA3-Tup1 (full-length) (from UniProt P16649 1-713)”, in [1], the binding result is reported as “binds”. For the molecule “HA3-Sin3 (full-length), synthesized by S. cerevisiae (from UniProt P22579 1-1536)”, the binding entry in [2], in test [3], in test [4] and in test [5] was “binds” in each case.

B1: Gal4TAD-Cti6_(450–506) (domain or fragment, UniProt Q08923 450-506)
chain: DQSDREEFVRFVENQHFVEKVDTIYNGYNESLSMMDDLTRELLLWEKKYSNNTNAIQ
As for B1, the figures for the binding entry in test [6] and in test [7] were “no binding” and “binds”, respectively.

B2: Gal4 TAD-Cti6_(450-506) L491A L492A L493A (domain or fragment, UniProt Q08923 450-506)
chain: DQSDREEFVRFVENQHFVEKVDTIYNGYNESLSMMDDLTREAAAWEKKYSNNTNAIQ
In the case of B2, the binding entry in test [7] is listed as “no binding”.

B3: Gal4 TAD-Cti6_(450-506) L481A (domain or fragment, UniProt Q08923 450-506)
chain: DQSDREEFVRFVENQHFVEKVDTIYNGYNESASMMDDLTRELLLWEKKYSNNTNAIQ
As to B3, in [7], the binding entry is “no binding”.

B4: Gal4 TAD-Cti6_(450-506) V467A (domain or fragment, UniProt Q08923 450-506)
chain: DQSDREEFVRFVENQHFAEKVDTIYNGYNESLSMMDDLTRELLLWEKKYSNNTNAIQ
Consider B4, for which, in test [7], the binding result is given as “no binding”.

B5: HA-tagged Sin3 (aa 1101–1536) (domain or fragment, UniProt P22579 1101-1536)
chain: IEEEELIDEEAKNPWLTGNLVEEANSQGIIQNRSIFNLFANTNIYIFFRHWTTIYERLLEIKQMNERVTKEINTRSTVTFAKDLDLLSSQLSEMGLDFVGEDAYKQVLRLSRRLINGDLEHQWFEESLRQAYNNKAFKLYTIDKVTQSLVKHAHTLMTDAKTAEIMALFVKDRNASTTSAKDQIIYRLQVRSHMSNTENMFRIEFDKRTLHVSIQYIALDDLTLKEPKADEDKWKYYVTSYALPHPTEGIPHEKLKIPFLERLIEFGQDIDGTEVDEEFSPEGISVSTLKIKIQPITYQLHIENGSYDVFTRKATNKYPTIANDNTQKGMVSQKKELISKFLDCAVGLRNNLDEAQKLSMQKKWENLKDSIAKTSAGNQGIESETEKGKITKQEQSDNLDSSTASVLPASITTVPQDDNIETTGNTESSDKGAKIQ
In the case of B5, the binding result in [8] is “no binding”.

B6: HA3-Cyc8 (aa 1–398, TPR-containing domain) (domain or fragment, UniProt P14922 1-398)
chain: MNPGGEQTIMEQPAQQQQQQQQQQQQQQQQAAVPQQPLDPLTQSTAETWLSIASLAETLGDGDRAAMAYDATLQFNPSSAKALTSLAHLYRSRDMFQRAAELYERALLVNPELSDVWATLGHCYLMLDDLQRAYNAYQQALYHLSNPNVPKLWHGIGILYDRYGSLDYAEEAFAKVLELDPHFEKANEIYFRLGIIYKHQGKWSQALECFRYILPQPPAPLQEWDIWFQLGSVLESMGEWQGAKEAYEHVLAQNQHHAKVLQQLGCLYGMSNVQFYDPQKALDYLLKSLEADPSDATTWYHLGRVHMIRTDYTAAYDAFQQAVNRDSRNPIFWCSIGVLYYQISQYRDALDAYTRAIRLNPYISEVWYDLGTLYETCNNQLSDALDAYKQAARLDVNN
For B6, the binding entry in [1] and in test [9] was “binds” each time.

B7: HA-tagged Sin3 (aa 1–300), PAH1 (domain or fragment, UniProt P22579 1-300)
chain: MSQVWHNSNSQSNDVATSNDATGSNERNEKEPSLQGNKPGFVQQQQRITLPSLSALSTKEEDRRDSNGQQALTSHAAHILGYPPPHSNAMPSIATDSALKQPHEYHPRPKSSSSSPSINASLMNAGPAPLPTVGAASFSLSRFDNPLPIKAPVHTEEPKSYNGLQEEEKATQRPQDCKEVPAGVQPADAPDPSSNHADANDDNNNNENSHDEDADYRPLNVKDALSYLEQVKFQFSSRPDIYNLFLDIMKDFKSQAIDTPGVIERVSTLFRGYPILIQGFNTFLPQGYRIECSSNPDDPI
For B7, the binding entry in test [8] is listed as “binds”.

B8: Gal4 TAD-Cti6 (aa 351–506) (domain or fragment, UniProt Q08923 351-506)
chain: EKTDEPILPLTSISSSEDDSRKASSRGSKRVSKPARKGNRTRRSNTSSDTNQNRRSADIGTDKPVKPRLPPQRTSLNEMRRRVSAILEFISRTQWELSEDQSDREEFVRFVENQHFVEKVDTIYNGYNESLSMMDDLTRELLLWEKKYSNNTNAIQ
Turning to B8, the binding entry is reported as “no binding” in test [6] and “binds” in [7].

B9: HA-tagged Sin3 (aa 801–1100) (domain or fragment, UniProt P22579 801-1100)
chain: NQYEETLFKIEEERHEYDFYIESNLRTIQCLETIVNKIENMTENEKANFKLPPGLGHTSMTIYKKVIRKVYDKERGFEIIDALHEHPAVTAPVVLKRLKQKDEEWRRAQREWNKVWRELEQKVFFKSLDHLGLTFKQADKKLLTTKQLISEISSIKVDQTNKKIHWLTPKPKSQLDFDFPDKNIFYDILCLADTFITHTTAYSNPDKERLKDLLKYFISLFFSISFEKIEESLYSHKQNVSESSGSDDGSSIASRKRPYQQEMSLLDILHRSRYQKLKRSNDEDGKVPQLSEPPEEEPNT
As for B9, in test [8], the binding result is reported as “no binding”.

B10: HA-tagged Sin3 (aa 601–950) (domain or fragment, UniProt P22579 601-950)
chain: TSLTEQYAPSSIQHQQQHPQSISPIANTQYGDIPVRPEIDLDPSIVPVVPEPTEPIENNISLNEEVTFFEKAKRYIGNKHLYTEFLKILNLYSQDILDLDDLVEKVDFYLGSNKELFTWFKNFVGYQEKTKCIENIVHEKHRLDLDLCEAFGPSYKRLPKSDTFMPCSGRDDMCWEVLNDEWVGHPVWASEDSGFIAHRKNQYEETLFKIEEERHEYDFYIESNLRTIQCLETIVNKIENMTENEKANFKLPPGLGHTSMTIYKKVIRKVYDKERGFEIIDALHEHPAVTAPVVLKRLKQKDEEWRRAQREWNKVWRELEQKVFFKSLDHLGLTFKQADKKLLTTKQLIS
For the molecule B10, the binding entry in test [8] is recorded as “no binding”.

B11: Gal4 TAD-Cti6 (aa 430–506) (domain or fragment, UniProt Q08923 430-506)
chain: RRRVSAILEFISRTQWELSEDQSDREEFVRFVENQHFVEKVDTIYNGYNESLSMMDDLTRELLLWEKKYSNNTNAIQ
With B11, the binding result is “no binding” in test [6] and “binds” in [7].
